Assay results: the RNAGym collection of RNA variant scans (doi:10.1073/pnas.2313332121)
Variants at the background level are over-represented here.

B1: TPR 5TU (parent)
chain: GGAUCUUCUCGAUCUAACAAAAAAGACAAAUCUGCCACAAAGCUUGAGAGCAUCUUCGGAUGCAGAGGCGGCAGCCUUCGGUGGCGCGAUAGCGCCAACGUUCUCAACUAUGACACGCAAAACGCGUGCUCCGUUGAAUGGAGUUUAUCAUG

Variants of: B1
Test: polymerase ribozyme fitness, log enrichment relative to wild type (log ratio); higher = more active; in vitro selection for triplet polymerase activity
Procedure, shortened: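 Streptavidin-bead capture of gel-excised extended constructs, followed by RT-PCR, closed a single triplicate in vitro selection round. That round began by annealing PCR-built, transcribed mutant libraries of each subunit of a heterodimeric triplet polymerase ribozyme with a biotinylated primer, the partner subunit and triplets, then incubating them frozen at −7 °C. After Illumina sequencing of inputs and outputs, genotypes needed ≥10 input reads and ≥1 read per output. Fitness is the base-2 logarithm of genotype enrichment over wild-type enrichment, using inverse-variance-weighted replicate averages.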

| Variant | polymerase ribozyme fitness (log ratio) |
| --- | --- |
| C8G A40C C85G A113U | ≤ -4.2 |
| C8G A40U A41C C85U C103A C129A C131U | ≤ -4.2 |
| C8G A49C U82C C87G | ≤ -4.2 |
| C8G A49U A91G | ≤ -4.2 |
| C8G A66C C75U C103G U127G A150G | ≤ -4.2 |
| C8G A66G | ≤ -4.2 |
| C8G C14A C38A A49C G86A A91C | ≤ -4.2 |
| C8G C14G U33G U56A G83U C87U U102G A119G | ≤ -4.2 |
| C8G C18U A22U G65C C75U C96G | ≤ -4.2 |
| C8G C18U U55G G133U A142C | ≤ -4.2 |
| C8G C27A C57G A60G G71U A97U A98G C105A A138G | ≤ -4.2 |
| C8G C27G C36G A39C C85A | ≤ -4.2 |
| C8G C35U A64C A89U A91U U101G A142C | ≤ -4.2 |
| C8G C38U A47U C79A G83A G133U | ≤ -4.2 |
| C8G C43A C69G G92C | ≤ -4.2 |
| C8G C43U G50U C79G C93A C116G U134G A138C U146G | ≤ -4.2 |
| C8G C43U G88C C93A U146G | ≤ -4.2 |
| C8G C54A C63G G92A C118A G128A G133U | ≤ -4.2 |
| C8G C54U U55A C93G A107C C116U | ≤ -4.2 |
| C8G C75G G83A A91G G92A C93G C96A U111G C132U G141A A147U | ≤ -4.2 |
| C8G C75G U82C | ≤ -4.2 |

| Variant | polymerase ribozyme fitness (log ratio) |
| --- | --- |
| C8G C93G | ≤ -4.2 |
| C8G C125A | -3.82 |
| C8G G11C A16U G58U A64U C85A A89G C93A C95A C116U A142G U145C | ≤ -4.2 |
| C8G G11U A73G G86A C99A A142G U148G | ≤ -4.2 |
| C8G G48C G80U G84U C125U G141U | ≤ -4.2 |
| C8G G50A U53G U90A C93U | ≤ -4.2 |
| C8G G50C U55C G100A A115G U127C | ≤ -4.2 |
| C8G G74C A97U | ≤ -4.2 |
| C8G G143C | -4.08 |
| C8G U9A A30C U102C | ≤ -4.2 |
| C8G U31G C38U A47C A49G U55A G86A | ≤ -4.2 |
| C8G U55G C72U G84U G136A | ≤ -4.2 |
| C8U A12C G59C G68A C85U C118G | ≤ -4.2 |
| C8U A12G A52G A98U | -2.99 |
| C8U A12G C35A U44A | ≤ -4.2 |
| C8U A16G A26U G94U C96U C123U U134C | ≤ -4.2 |
| C8U A17C A28G C35U C76A C96U U144G | -3.75 |
| C8U A17U C93U C99U U109G U135C | ≤ -4.2 |
| C8U A19U C51A G83U C87A | ≤ -4.2 |
| C8U A21C G42A A52C G92U U102G | ≤ -4.2 |
| C8U A21U G25A A60C C93U C125A | ≤ -4.2 |

| Variant | polymerase ribozyme fitness (log ratio) |
| --- | --- |
| C8U A21U G42A C54G A89U C96U G112U U144A | ≤ -4.2 |
| C8U A22U U56A A73G A121G C123U | -4.16 |
| C8U A23C A37U G71C C95U U135A | ≤ -4.2 |
| C8U A24U C38G U56A U78C C87A U148C G152U | ≤ -4.2 |
| C8U A28C C57U C76G G83U G88U C96A A122C A137G C149U | ≤ -4.2 |
| C8U A28U G58A G74C U127G G133C A142U C149G | ≤ -4.2 |
| C8U A30U C36G G83C A91G G143C | ≤ -4.2 |
| C8U A37U A40G A91U A98U | ≤ -4.2 |
| C8U A39C C57U U130G | ≤ -4.2 |
| C8U A39G U53C A66G G80C | ≤ -4.2 |
| C8U A47G U90G G133C G143A | ≤ -4.2 |
| C8U A52G G58C C76G C93A C108G G136U | ≤ -4.2 |
| C8U A91G C96U A142G U145A | ≤ -4.2 |
| C8U C10G A64C G81A G84A | ≤ -4.2 |
| C8U C14G A22U A28G G128U A138G A150C | ≤ -4.2 |
| C8U C14U A26G G68A G86C U145G | ≤ -4.2 |
| C8U C27G C57U G67U G68A G86U A98U | ≤ -4.2 |
| C8U C27G C93A U139C G141C U145G | ≤ -4.2 |
| C8U C27G U56A G80A U134C U144A | ≤ -4.2 |
| C8U C35U G50C U55A G58C G59C A60C A106U G141A | ≤ -4.2 |
| C8U C38U A49G C79G C93A C103G G136U | ≤ -4.2 |

| Variant | polymerase ribozyme fitness (log ratio) |
| --- | --- |
| C8U C43U G48C U55A G92C | ≤ -4.2 |
| C8U C51A G59U G84U | ≤ -4.2 |
| C8U C57U A91G | ≤ -4.2 |
| C8U C85G | -3.44 |
| C8U C87G | ≤ -4.2 |
| C8U C93U | ≤ -4.2 |
| C8U C96G | -2.63 |
| C8U G11C C35U C54A C96A C108A C125G | ≤ -4.2 |
| C8U G11U U15C A49C A60U C63U C69U A91G C132G | ≤ -4.2 |
| C8U G25A A30G U61A G70A | ≤ -4.2 |
| C8U G34C G94A U135G | ≤ -4.2 |
| C8U G46C C51U U77C C85U G92C G117U A120G | ≤ -4.2 |
| C8U G46C U55A A60U C95U A98U G143A C149G | ≤ -4.2 |
| C8U G48U C85A C103G U144G U148C | ≤ -4.2 |
| C8U G58A A73U A91G A113C U145A | ≤ -4.2 |
| C8U G58C | -2.7 |
| C8U G81C | -3.94 |
| C8U G83U A97G A142U | -4.17 |
| C8U U9A A12C A26U | ≤ -4.2 |
| C8U U9C A28U A47U U102G | ≤ -4.2 |
